Results as given in patent US20250115571A1, “OXOPIPERAZINE DERIVATIVES” (Inthera Bioscience AG, priority 2017, published 2025).
At least one read-out could not be matched to a standard name with certainty. Marks after values point to notes of the source that are not given here.

Tested on: CaSki cells
Assay: Colony Formation Assay (CFA), 14 days
Format: cell-based, human
Settings: colony formation assay, class by % inhibition at 0.7, 6 or 50 μM
Text: Cell culture: CaSki cells were obtained from CLS GmbH, Eppelheim, Germany (cat. 300145) and subcultured in ready-to-use RPMI1640 Media (CLS GmbH cat. 820700) after addition of “Antibiotic Antimycotic Solution” (Sigma-Aldrich, St Louis, USA, cat. A5955) at 1:100 dilution. CaSki cells were expanded and aliquots kept frozen in liquid nitrogen according to manufacturer's instructions. Once thawed, aliquots were passaged every second or third day at a seed density of 20′000 cells/cm^2; and used for a maximum of twenty passages.
Preparation of the cells for CFA: Cell culture flasks were rinsed twice with Ca++/Mg++-free Phosphate-Buffered Saline (DPBS, CLS GmbH cat. 860015) and incubated with Accutase (CLS GmbH cat. 830100) for 15 min at 37° C. Cells were resuspended in a four-fold volume of ready-to use RPMI, centrifuged at 300 g for 10 minutes, the supernatant discarded and the cells resuspended in ready-to-use RPMI1640 by pipetting up and down ten times with a serological pipette. Cell density was determined with a Via-1 Cassette (Chemometec, Allerod, Denmark) on a Nucleocounter NC 3000 (Chemometec). The required amount of cells was first diluted 1:10 in ready-to-use RPMI; cells pipetted five times up-down with a serological pipette; and the 1:10 solution added to the final volume needed for the whole assay setup. Cells were mixed again by pipetting up and down twenty times with a serological pipette. The final cell density was 70 cells/ml.
Seeding: Cells were seeded column-wise in 6-well plates, while triplicates were treated row-wise. Three ml cell suspension solution (210 cells) were added per well.
Treatment: Compound stock solutions were prepared at a concentration of 30 mM in 50% DMSO/50% water; and diluted in the same solution so that the volume added to the wells was of 5 μl and the final DMSO well concentration 0.08%. Untreated cells (negative controls) were incubated in a) medium only; and b) 0.08% DMSO. […] Tests showing less than 75% or more than 95% inhibition were repeated. The plates were swirled gently after addition of the compounds and the cells incubated for 14 days at 37° C. Culture incubation solutions were replaced after one week.
Staining: Colonies were washed twice with ice-cold DPBS and fixed on ice with 1 ml ice-cold 10% methanol solution for 30 min. The methanol solution was removed and colonies incubated with 0.1% Crystal Violet/DBPS for 20 min at room temperature. The wells were rinsed with water at room temperature, let dry and colonies were counted. Compounds e.g., compounds of Table 2 and 3 were classified as follows: […]

SMILES | Activity (inhibition of colony formation)
CC[C@H](C)[C@@H](C(=O)N1CCC(CC(N)=O)CC1)N1CCN[C@@H](CC(C)C)C1=O [Compound 126, (1-{(2S,3S)-2-[(S)-3-Isobutyl-2-oxo-1-piperazinyl]-3-methylvaleryl}-4-piperidyl)acetamide] | +* (greater than 0% but less than or equal to 50% inhibition of colony formation at a concentration of 50 μM)
CC(C)C[C@@H]1NCCN([C@@H](CC(C)C)C(=O)N2CCC(C)(Cc3nccn3C)CC2)C1=O [Compound 77, (S)-1-[(S)-3-Methyl-1-({4-methyl-4-[(1-methyl-1H-imidazol-2-yl)methyl]-1-piperidyl}car-bonyl)butyl]-3-isobutyl-2-piperazinone] | +++ (more than 90% inhibition of colony formation at a concentration of 50 μM)
CC(C)C[C@@H]1NCCN([C@@H](C)C(=O)N2CCC3(C[C@@H]2C)OCC(CN2CCCC2)CO3)C1=O (stereo partly drawn) [Compound 290, (3S)-3-(2-methylpropyl)-1-[(2S)-1-oxo-1-[(3s,6s,8S)-8-methyl-3-(pyrrolidin-1-ylmethyl)-1,5-dioxa-9-azaspiro[5.5]undec-an-9-yl]propan-2-yl)piperazin-2-one (^≠), isomer Z] | ++++ (more than 90% inhibition of colony formation at a concentration of 6 μM)
CC(C)CCN(C)C(=O)CC1CCN(C(=O)[C@H](C(C)C)N2CCN[C@@H](CC(C)C)C2=O)CC1 [Compound 49, (S)-1-[(S)-1-[(4-{2-[N-Methyl(isopentyl)amino]-2-oxoethyl}-1-piperidyl)carbonyl]-2-methylpropyl]-3-isobutyl-2-piperazinone] | +* (greater than 0% but less than or equal to 50% inhibition of colony formation at a concentration of 50 μM)
CC(C)C[C@@H]1NCCN([C@@H](CC(C)C)C(=O)N2CCC(CCN3CCCC3)CC2)C1=O [Compound 53, (S)-1-[(S)-3-Methyl-1-({4-[2-(1-pyrrolidinyl)ethyl]-1-piperidyl}car-bonyl)butyl]-3-isobutyl-2-piperazinone] | ++++ (more than 90% inhibition of colony formation at a concentration of 6 μM)
CCN(C(=O)CC1CCN(C(=O)[C@H](CC(C)C)N2CCN[C@@H](CC3CC3)C2=O)CC1)C(C)C [Compound 62, (S)-1-[(S)-1-[(4-{2-[N-Ethyl(isopropyl)ami-no]-2-oxoethyl}-1-piperidyl)carbonyl]-3-methylbutyl]-3-(cyclopropylmethyl)-2-piperazinone] | ++ (more than 50% inhibition of colony formation at a concentration of 50 μM)
CCn1c(CC2CCN(C(=O)[C@H](CC(C)C)N3CCN[C@@H](CC(C)C)C3=O)CC2)nc(C)c1C [Compound 21, (S)-1-[(S)-1-({4-[(1-Ethyl-4,5-dimethyl-1H-imidazol-2-yl)methyl]-1-piperidyl}carbonyl)-3-methylbutyl]-3-isobutyl-2-piperazinone] | +++ (more than 90% inhibition of colony formation at a concentration of 50 μM)
CC(C)C[C@@H]1NCCN([C@@H](CC(C)C)C(=O)N2CCC3(CC2)OCC(CN(C)C)CS3)C1=O (stereo partly drawn) [Compound 234, (S)-1-[(S)-1-({3-[(Dimethyl-amino)methyl]-1-oxa-5-thia-9-aza-9-spiro[5.5]un-decyl}car-bonyl)-3-methylbutyl]-3-isobutyl-2-piperazinone] | ++++ (more than 90% inhibition of colony formation at a concentration of 6 μM)
CC(C)(C)C[C@@H]1NCCN([C@@H](CC2CC2)C(=O)N2CCC(Cc3ncc[nH]3)CC2)C1=O [Compound 134, (S)-1-[(S)-1-(Cyclopropylmethyl)-2-{4-[(1H-imidazol-2-yl)methyl]-1-piperidyl}-2-oxoethyl]-3-neopentyl-2-piperazinone] | +* (greater than 0% but less than or equal to 50% inhibition of colony formation at a concentration of 50 μM)
CC(C)C[C@@H]1NCCN([C@@H](CC(C)C)C(=O)N2CCC3(CCC(N(C)C)CC3)CC2)C1=O [Compound 255, (S)-1-[(S)-1-({9-(Dimethylamino)-3-aza-3-spiro[5.5]un-decyl}car-bonyl)-3-methylbutyl]-3-isobutyl-2-piperazinone] | +++ (more than 90% inhibition of colony formation at a concentration of 50 μM)
CCC[C@@H]1NCCN([C@@H](CC(C)C)C(=O)N2CCC(CC(N)=O)CC2)C1=O [Compound 128, (1-{(S)-2-[(S)-2-Oxo-3-propyl-1-piperazinyl]-4-methylvaleryl}-4-piperidyl)acetamide] | +* (greater than 0% but less than or equal to 50% inhibition of colony formation at a concentration of 50 μM)
CC(C)CCN(C)C(=O)CC1CCN(C(=O)C(Cc2ccccc2)N2CCN[C@@H](CC(C)C)C2=O)CC1 (stereo partly drawn) [Compound 51] | ++ (more than 50% inhibition of colony formation at a concentration of 50 μM)
CC(C)C[C@@H]1NCCN([C@@H](CC(C)C)C(=O)N2CCC3(C[C@@H]2C)OCC(CN2CCCC2)CO3)C1=O (stereo partly drawn) [Compound 248, (S)-1-[(S)-1-({(S)-8-Methyl-3-[(1-pyrrolidinyl)methyl]-1,5-dioxa-9-aza-9-spiro[5.5]un-decyl}carbonyl)-3-methylbutyl]-3-isobutyl-2-piperazinone] | ++++ (more than 90% inhibition of colony formation at a concentration of 6 μM)
CC(C)C[C@@H]1NCCN([C@@H](CC(C)C)C(=O)N2CCC3(C[C@@H]2C)OCC(Cn2cccn2)CO3)C1=O (stereo partly drawn) [Compound 297, (3S)-1-[(2S)-4-Methyl-1-oxo-1-[(3s,6s,8S)-8-methyl-3-(1H-pyrazol-1-ylmethyl)-1,5-dioxa-9-azaspiro[5.5]undec-an-9-yl]pentan-2-yl]-3-(2-methylpropyl)piper-azin-2-one (^≠), isomer Z] | *+ (greater than 0% but less than or equal to 50% inhibition of colony formation at a concentration of 0.7 μM)

Same assay, conditions: inhibition of colony formation, 14 days, classes at 6, 50 or 0.7 μM

SMILES | Activity
CC(C)C[C@@H]1NCCN([C@@H](CC(C)C)C(=O)N2CCC(CC(=O)NC(C)C(C)C)CC2)C1=O (stereo partly drawn) [Compound 136, (S)-1-[(S)-1-({4-[2-(1,2-Dimethyl-propylamino)-2-oxoethyl]-1-piperidyl}carbonyl)-3-methylbutyl]-3-isobutyl-2-piperazinone] | ++ (more than 50% inhibition of colony formation at a concentration of 50 μM)
CC(C)C[C@@H]1NCCN([C@@H](CC(C)C)C(=O)N2CCC(CC(=O)N(C)C(C)C3CC3)CC2)C1=O (stereo partly drawn) [Compound 182, (S)-1-[(S)-1-[(4-{2-[N-Methyl(1-cyclopropyl-ethyl)amino]-2-oxoethyl}-1-piperidyl)carbonyl]-3-methylbutyl]-3-isobutyl-2-piperazinone] | +* (greater than 0% but less than or equal to 50% inhibition of colony formation at a concentration of 50 μM)
CC(C)C[C@@H]1NCCN([C@@H](CC(C)C)C(=O)N2CCC(COc3ccc(C(=O)O)cc3)CC2)C1=O [Compound 193, p-[(1-{(S)-2-[(S)-3-Isobutyl-2-oxo-1-piperazinyl]-4-methylvaleryl}-4-piperidyl)meth-oxy]benzoic acid] | +* (greater than 0% but less than or equal to 50% inhibition of colony formation at a concentration of 50 μM)
CCCC(CC)OC(=O)CC1CCN(C(=O)[C@H](CC(C)C)N2CCN[C@@H](CC(C)C)C2=O)CC1 (stereo partly drawn) [Compound 199, 1-Ethylbutyl (1-{(S)-2-[(S)-3-isobutyl-2-oxo-1-piperazinyl]-4-methylvaleryl}-4-piperidyl)acetate] | +++ (more than 90% inhibition of colony formation at a concentration of 50 μM)
CC(C)C[C@@H]1NCCN([C@@H](CC(C)C)C(=O)N2CCC(CC(=O)O)CC2)C1=O [Compound 137, (1-{(S)-2-[(S)-3-Isobutyl-2-oxo-1-piperazinyl]-4-methylvaleryl}-4-piperidyl)acetic acid] | +* (greater than 0% but less than or equal to 50% inhibition of colony formation at a concentration of 50 μM)
CC(C)C[C@@H]1NCCN([C@@H](CC(C)C)C(=O)N2CCC(Oc3ccccc3)CC2)C1=O [Compound 143, (S)-1-{(S)-3-Methyl-1-[(4-phenoxy-1-piperidyl)car-bonyl]butyl}-3-isobutyl-2-piperazinone] | ++ (more than 50% inhibition of colony formation at a concentration of 50 μM)
CC(C)C[C@@H]1NCCN([C@@H](CC(C)C)C(=O)N2CCC(CC(=O)N(C(C)C)C(C)C)CC2)C1=O [Compound 187, (S)-1-[(S)-1-[(4-{2-[Bis(isopropyl)amino]-2-oxoethyl}-1-piperidyl)carbonyl]-3-methylbutyl]-3-isobutyl-2-piperazinone] | ++ (more than 50% inhibition of colony formation at a concentration of 50 μM)
